From PubChem BioAssay AID1645887 (National Center for Advancing Translational Sciences (NCATS), 2021)
Several values for one entry are separate records, joined by “and”; a condition that tells them apart may be missing. Identical values can stand only once. Among all 16,000 compounds or so, about 40 (0.2%) were called active. Inconclusive results (about 1%) are left out. Calls come from the whole dose curve; as a rule, active = well fitted activation curve with a large enough effect; inconclusive = small, poorly fitted or top-dose-only effect, or another doubt; inactive = no such curve, though single readings can be large or run the other way. The list shows a part of the results.

biological target: Rap guanine nucleotide exchange factor 4 (Homo sapiens) (UniProt Q8WZA2); experiment: Validation qHTS for agonist of cAMP-regulated guanine nucleotide exchange factor 4 (EPAC2); conditions: EPAC2 Rap1B BODIPY-GDP exchange, fluorescence; activation: stronger effect = higher value;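 note: exchange makes BODIPY-GDP fluorescence drop when released from Rap1B; series mostly up to about 150 µM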
Summary of the method: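 Fluorescent exchange assay: 100 nM EPAC2 with 250 nM RAP1B-BODIPY-GDP and 50 uM GDP; compound added, 5 min at room temperature, then read (ex 480/em 540 nm) every 5 min for 30 min. Normalized to 6.5 mM cAMP agonist control.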
% is set by controls: 0 for no effect and ±100 for the full control effect.

Sequence of UniProt Q8WZA2 (Q8WZA2 whole entry, looked up): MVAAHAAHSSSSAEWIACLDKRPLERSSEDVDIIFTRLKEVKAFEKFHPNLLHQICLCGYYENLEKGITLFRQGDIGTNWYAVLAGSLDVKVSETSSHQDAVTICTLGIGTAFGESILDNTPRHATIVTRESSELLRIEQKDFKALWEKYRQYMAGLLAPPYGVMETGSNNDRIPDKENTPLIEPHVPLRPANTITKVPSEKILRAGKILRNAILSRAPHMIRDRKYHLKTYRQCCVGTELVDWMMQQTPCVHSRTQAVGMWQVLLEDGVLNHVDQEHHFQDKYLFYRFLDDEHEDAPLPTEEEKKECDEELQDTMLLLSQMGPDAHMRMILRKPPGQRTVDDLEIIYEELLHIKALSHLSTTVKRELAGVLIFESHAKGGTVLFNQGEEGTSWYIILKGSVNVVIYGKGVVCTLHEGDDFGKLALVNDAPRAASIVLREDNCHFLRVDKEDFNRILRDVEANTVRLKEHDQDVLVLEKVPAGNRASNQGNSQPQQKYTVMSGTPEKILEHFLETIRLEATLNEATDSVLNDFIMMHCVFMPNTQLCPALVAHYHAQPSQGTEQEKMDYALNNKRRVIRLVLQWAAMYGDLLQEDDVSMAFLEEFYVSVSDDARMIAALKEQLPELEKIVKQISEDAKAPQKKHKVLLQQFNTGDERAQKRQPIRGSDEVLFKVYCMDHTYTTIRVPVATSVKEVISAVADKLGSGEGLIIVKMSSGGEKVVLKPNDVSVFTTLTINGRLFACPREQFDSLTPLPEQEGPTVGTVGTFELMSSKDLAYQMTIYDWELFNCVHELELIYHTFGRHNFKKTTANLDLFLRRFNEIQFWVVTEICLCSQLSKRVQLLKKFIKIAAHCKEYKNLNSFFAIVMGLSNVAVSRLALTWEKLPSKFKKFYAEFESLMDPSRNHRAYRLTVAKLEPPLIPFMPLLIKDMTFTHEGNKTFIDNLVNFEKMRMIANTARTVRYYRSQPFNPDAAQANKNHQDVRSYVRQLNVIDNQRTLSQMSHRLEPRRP

activation, inactive:
CSc1ncccc1C(=O)NCC1Cc2cc(-c3cnccn3)ccc2O1 (stereo not given) 2.41%
COc1cc(/C=C(\C#N)C(=O)Nc2nnc(C(F)(F)F)s2)ccc1OCc1ccc(C(F)(F)F)cc1C(F)(F)F -81.4%
COc1ccccc1OCC(O)CN1CCN(CC(=O)Nc2c(C)cccc2C)CC1 (stereo not given) -16.1% and -22.2%
O=C(c1cc(C(F)(F)F)cc(C(F)(F)F)c1)N1CCC[C@@]2(CCN(Cc3nccs3)C2)C1 -39.8%
O=[N+]([O-])c1cccc2cn[nH]c12 -25.1% and -8% and -27.3%
CCNc1ncc2nc(-c3cc(F)cc(F)c3)c(=O)n(CCc3ccccc3)c2n1 9.1%
CCCCC/C=C\C/C=C\CCCCCCCC(=O)NC(C)c1ccccc1 (stereo not given) 10.3%
COc1ccc(CN2CCC(=O)N([C@H](CO)c3ccccc3)CC2)cc1 -5.16%
COc1ccccc1CNc1cc(-c2cccnc2)ncn1 -4.02%
Cc1nc(C)n(CC(=O)N2CCOc3ccc(CN4CCN(C)C[C@@H]4c4ccccc4)cc3C2)n1 -9.99%
C=CCN([C@@H](CC(C)C)C(=O)OC)S(=O)(=O)N(CC=C)[C@@H](CC(C)C)C(=O)OC -31.6%
FC(F)(F)c1ccccc1-c1nc(N2CCNCC2)c2ccccc2n1 -18.1%
N=C(N)c1ccc2cc(OC(=O)c3ccc(N=C(N)N)cc3)ccc2c1 -28.6% and 5.76%
O=C(O)CC/C=C\CC[C@H]1[C@@H](N2CCCCC2)[C@@H](O)C[C@@H]1OCc1ccc(-c2ccccc2)cc1 -12.5%
CCCC(NC(C)C(=O)N1C(C(=O)O)CC2CCCCC21)C(=O)OCC (stereo not given) -23.3%
Cc1cccc(CNc2ccnc(-c3cccc(C#N)c3)n2)c1 -1.68%
O=C(NCc1cccnc1)c1cnn(-c2ncc3c(n2)-c2ccccc2CCC3)c1C1CC1 -3.25%
COc1cc(=O)n2c(c1C(=O)N(C)Cc1nonc1C)CCN(Cc1cc(C)c(C)cc1C)CC2 -20.9%
COc1ccc(C(OCCN2CCC[C@@H](C(=O)O)C2)(c2ccc(OC)cc2)c2ccc(OC)cc2)cc1 -3.87%
CCNc1ncc2nc(-c3cn(C)c4ccccc34)c(=O)n(-c3ccc(OC)cc3)c2n1 -20.7%
COCC(=O)Nc1cc(C(=O)N2CCCCC2c2nccn2C)cc2nc(-c3ccccc3)n(C)c12 (stereo not given) -2.65%
N#Cc1cccc(NC(=O)N2CC[C@@]3(CCCN(S(=O)(=O)c4ccccc4)C3)C2)c1 -12.6%
CN1CCN(c2ncnc3ccc(-c4ccccc4Cl)cc23)CC1 -28.5%
Clc1ccccc1-c1nc(NCc2cccnc2)c2ccccc2n1 -16.8%
COc1ccccc1CN1CC[C@@]2(CCCN(C(C)=O)C2)C1 -22.1%
COc1ccccc1CN1CC2(CCN(S(C)(=O)=O)CC2)C1 -0.942%
CS(=O)(=O)CCCCN=C=S -7.4%
COCc1c(C(=O)N2CCC(N3CCCCC3)CC2)cnn1-c1ncc(C)c(-c2cccs2)n1 -9.94%
CCCCc1nc(Cl)c(CO)n1Cc1ccc(-c2ccccc2-c2nn[nH]n2)cc1 -13%
c1nc(N2CCNCC2)c2cc(-c3ccc4c(c3)OCO4)ccc2n1 1.73%
CCCCCC[C@@H](O)C/C=C\CCCCCCCC(=O)O -17.5% and -26.2% and -12.3%
CC1=CCC2CC1C2(C)C (stereo not given) -11.5%
CNCC(O)c1ccc(OC(=O)C(C)(C)C)c(OC(=O)C(C)(C)C)c1 (stereo not given) -13.1%
CN1C(=O)N(C)C2=NNC=NC2(O)C1=O (stereo not given) 7.86%
COC(=O)C1CCN(Cc2ccc3c(c2)CN(C(=O)c2ncc(C)[nH]2)CCO3)CC1 -13.6%
CN(C)c1ccc(C(=C2C=CC(=[N+](C)C)C=C2)c2c(O)c(S(=O)(=O)[O-])cc3cc(S(=O)(=O)O)ccc23)cc1 -17%
CN(C)Cc1ccccc1-c1cncnc1Nc1ccccc1 -10.2%
CCN(CC)CCc1nc(-c2ccccc2)no1 6%
CCCCC(CC)COC(=O)/C=C/c1ccc(OC)cc1 (stereo not given) -2.21%
c1cncc(-c2nc(-n3ccnc3)c3ccccc3n2)c1 -12.2%
Cc1ccc2ncc(C)c(C)c2c1 -22.7%
CCC(/C=C/C(C)C1CCC2C3CC=C4CC(O)CC[C@@]4(C)C3CC[C@@]12C)C(C)C (stereo not given in full) -30.7%
O=C(NCC1Cc2cccc(-c3cccnc3)c2O1)c1ccc2cc[nH]c2c1 (stereo not given) 7.6%
COCCCCCCCCCCCC(=O)O -18%
C=CC1(C)CC(=O)C2(O)C(C)(O1)C(OC(C)=O)C(O)C1C(C)(C)CCC(O)C12C (stereo not given) 15.7%
NCCNCCN 2.01%
COc1ccccc1-c1cc(Nc2ccc(F)cc2)ncn1 -14.7%
CC(C)CN1CCC2(CC1)CCN(C(=O)c1cnccn1)CC2 -11.5%
Nc1ncnc2c1c(-c1ccc(Oc3ccccc3)cc1)cn2C1CCCC1 -38.5%
COc1ccc2c3c1OC1CC(O)C=C[C@@]31CCN(C)C2 (stereo not given in full) -2.88%
Cc1noc(C)c1C(=O)N1CCC[C@@]2(CCN(c3ncccn3)C2)C1 -7%
O=Cc1ccc(Cl)cc1 -8.69%
CN1CCC[C@@H]1c1cccnc1 -3.02%
O=C(Nc1ccccc1)N1CC[C@@]2(CCCN(C(=O)c3ccncc3)C2)C1 -1.1%
CC(C)c1ccc(CN2CCC3(CCC(CNC(=O)c4ccn(C)n4)O3)CC2)cc1 (stereo not given) -7.2%
C=CC1=C(C)C2=CC3=NC(=C(CC(=O)[O-])C4=NC(=C(C)C4=C([O-])[O-])C=c4[n-]c(c(C)c4CC)=CC1=N2)C(CCC(=O)[O-])C3C.[Cu+2].[Na+].[Na+].[Na+] (stereo not given) -19.1%
COCC1CCCN(Cc2ccc3c(c2)CN(C(=O)c2cc(-c4ccccc4)n[nH]2)CCO3)C1 (stereo not given) -12.3%
CC(C)NC[C@@H](O)COc1cccc2ccccc12 -1.65% [middle of 4 runs]
CC(=O)Oc1ccc2c(c1)CCC1C2CC[C@@]2(C)C1CC(OC(C)=O)C2OC(C)=O (stereo not given in full) -4.15%
CCc1cn([C@H]2C[C@H](O)[C@@H](CO)O2)c(=O)[nH]c1=O 3.2%
COC(=O)[C@H](CC(C)C)NS(=O)(=O)N[C@@H](CC(C)C)C(=O)OC -28.5%
COc1ccccc1CNc1ncnc2ccc(-c3cccc(C#N)c3)cc12 -0.576%
O=S(=O)(O)NC1CCCCC1 -16.2%
CN(Cc1ccco1)C(=O)c1cc(NC(=O)C2CCC2)c2c(c1)nc(-c1ccncc1)n2C -9.71%
COc1cc(=O)n2c(c1C(=O)NC(C)c1ccco1)CCN(Cc1ccnc3ccccc13)CC2 (stereo not given) -7.02%
CC1(C)[C@H]2CC[C@]1(C)[C@H](O)C2 -5.52%
COc1cc(OC)c(/C=C/c2ccc3ccccc3n2)c(OC)c1 -5.28%
COc1ccccc1-c1nc2cc(C(=O)NC[C@H]3CCc4ccccc4O3)cc(NC(C)=O)c2n1C -20.1%
Cc1noc(C)c1CC(=O)NCC1Cc2cc(-c3cccc(OC(F)(F)F)c3)ccc2O1 (stereo not given) -39.8%
COCc1c(C(=O)N2CCN(C3CCCC3)CC2)cnn1-c1nccc(-c2cccs2)n1 1.9%
CC1(C)[C@@H](O)CC[C@]2(C)C3C(=O)C=C4C5C[C@@](C)(C(=O)O)CC[C@]5(C)CC[C@@]4(C)[C@]3(C)CC[C@@H]12 (stereo not given in full) 7.05%
Cc1cccc(CNC(=O)c2cnn(-c3nccc(-c4ccccc4F)n3)c2C2CC2)n1 -19%
Cc1cc(-c2ccc(N=Nc3c(S(=O)(=O)O)cc4cc(S(=O)(=O)O)cc(N)c4c3O)c(C)c2)ccc1N=Nc1c(S(=O)(=O)O)cc2cc(S(=O)(=O)O)cc(N)c2c1O -32.7%
CC(NC(=O)c1ccco1)c1nnc2n1CCN(Cc1ccc(N3CCCC3)cc1)CC2 (stereo not given) -1.63%
Cc1ccccc1-c1nccc(NCc2cccs2)n1 -8.47%
CCC1CN(CCNC(=O)c2cccc3nccnc23)Cc2cc(OC)ccc2O1 (stereo not given) -4.63%
COc1ccc(CNc2nc(-c3ccc(N(C)C)cc3)nc3ccccc23)c(OC)c1 -12.3%
COc1ccccc1CN1CCCC2(CCNCC2)C1 -10.4%
O=c1cnc2cnc(Oc3ccccc3)nc2n1C1CC1 3.29%
OC1C(O)C(O)C(O)C(O)C1O (stereo not given) -9.31%
CN=C(NC)NCc1ccccc1 1.03%
Nc1nc2ccc(Cl)cc2c2nc(-c3ccco3)nn12 -6.6% and 9.44% and -10.6%
CC(C)(CNC(=O)c1cnn(-c2ncc3c(n2)-c2ccccc2CC3)c1C1CC1)N1CCOCC1 -16.6%
C=C[C@@H]1c2cc(C)ccc2N(S(=O)(=O)c2ccc(C)cc2)[C@H](c2ccccc2C(F)(F)F)C1(C#N)C#N -17.7%
CCCCC/C=C\C[C@@H](O)/C=C/C=C/C=C\[C@@H](O)CCCC(=O)O -2.51%
